From the supplement of paper PMC4604168 (melanoma cell lines)
The other results are listed elsewhere or left out. Repeats are few or missing, and single values can be far off.

test system: G361; experiment: cell count relative to DMSO control; melanoma cells; higher = more viable cells; settings: library dose: low library concentration; 72 h
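Note: cell number obtained by counting DAPI-stained nuclei in high-throughput microscope images with image analysis software, screen run in 1,536-well plates.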

Row | SMILES | cell count
1 | CN(c1ncccc1CNc1nc(Nc2ccc3c(c2)CC(=O)N3)ncc1C(F)(F)F)S(C)(=O)=O + Cc1cc(SCc2sc(-c3ccc(C(F)(F)F)c(F)c3)nc2C)ccc1OCC(=O)O [GW0742] (first compound 0.08 µM, partner dose 2 µM) | 102%
2 | C[C@@H](Oc1cc(-c2cnn(C3CCNCC3)c2)cnc1N)c1c(Cl)ccc(F)c1Cl [Crizotinib] + Cc1cc(SCc2sc(-c3ccc(C(F)(F)F)c(F)c3)nc2C)ccc1OCC(=O)O [GW0742] (first compound 0.2 µM, partner dose 2 µM) | 93.2%
3 | O=c1[nH]nc(Sc2ncc([N+](=O)[O-])s2)n1-c1ccc2c(c1)OCCO2 + Cc1cc(SCc2sc(-c3ccc(C(F)(F)F)c(F)c3)nc2C)ccc1OCC(=O)O [GW0742] (first compound 0.2 µM, partner dose 2 µM) | 101%
4 | CC[C@]1(O)C[C@H]2CN(CCc3c([nH]c4ccccc34)[C@@](C(=O)OC)(c3cc4c(cc3OC)N(C=O)[C@H]3[C@@](O)(C(=O)OC)[C@H](OC(C)=O)[C@]5(CC)C=CCN6CC[C@]43[C@@H]65)C2)C1 [vincristine] + O=C(Oc1ccc([N+](=O)[O-])cc1)N1CCC(C(O)(c2ccc3c(c2)OCO3)c2ccc3c(c2)OCO3)CC1 [JZL184] (first compound 0.0001 µM, partner dose 1 µM) | 101%
5 | CC(=O)c1c(C)c2cnc(Nc3ccc(N4CCNCC4)cn3)nc2n(C2CCCC2)c1=O [palbociclib] + C/C(O)=C(\C#N)C(=O)Nc1cc(Br)ccc1Br [LFM-A13] (first compound 0.04 µM, partner dose 2 µM) | 73.1%
6 | CN(c1ncccc1CNc1nc(Nc2ccc3c(c2)CC(=O)N3)ncc1C(F)(F)F)S(C)(=O)=O + C/C(O)=C(\C#N)C(=O)Nc1cc(Br)ccc1Br [LFM-A13] (first compound 0.08 µM, partner dose 2 µM) | 105%
7 | O=C(Nc1cc(C(F)(F)F)cc(C(F)(F)F)c1)c1cc(Cl)ccc1O + C/C(O)=C(\C#N)C(=O)Nc1cc(Br)ccc1Br [LFM-A13] (first compound 0.016 µM, partner dose 2 µM) | 95.5%
8 | N#CC[C@H](C1CCCC1)n1cc(-c2ncnc3[nH]ccc23)cn1 [ruxolitinib] + C/C(O)=C(\C#N)C(=O)Nc1cc(Br)ccc1Br [LFM-A13] (first compound 1 µM, partner dose 2 µM) | 91%
9 | O=C(/C=C/c1cccnc1)NCCCCC1CCN(C(=O)c2ccccc2)CC1 + C/C(O)=C(\C#N)C(=O)Nc1cc(Br)ccc1Br [LFM-A13] (first compound 0.01 µM, partner dose 2 µM) | 8.22%
10 | Cn1cnc2c(F)c(Nc3ccc(Br)cc3Cl)c(C(=O)NOCCO)cc21 [selumetinib] + O=C(Oc1ccc([N+](=O)[O-])cc1)N1CCC(C(O)(c2ccc3c(c2)OCO3)c2ccc3c(c2)OCO3)CC1 [JZL184] (first compound 0.015 µM, partner dose 1 µM) | 97.8%
11 | Nc1ncn([C@H]2C[C@H](O)[C@@H](CO)O2)c(=O)n1 [decitabine] + O=C(Oc1ccc([N+](=O)[O-])cc1)N1CCC(C(O)(c2ccc3c(c2)OCO3)c2ccc3c(c2)OCO3)CC1 [JZL184] (first compound 0.1 µM, partner dose 1 µM) | 94.8%
12 | O=C(/C=C/c1cccnc1)NCCCCC1CCN(C(=O)c2ccccc2)CC1 + Cc1cc(SCc2sc(-c3ccc(C(F)(F)F)c(F)c3)nc2C)ccc1OCC(=O)O [GW0742] (first compound 0.01 µM, partner dose 2 µM) | 9.39%
13 | CS(=O)(=O)c1ccc(C(=O)Nc2ccc(Cl)c(-c3ccccn3)c2)c(Cl)c1 [vismodegib] + C/C(O)=C(\C#N)C(=O)Nc1cc(Br)ccc1Br [LFM-A13] (first compound 1 µM, partner dose 2 µM) | 100%
14 | CS(=O)(=O)CCNCc1ccc(-c2ccc3ncnc(Nc4ccc(OCc5cccc(F)c5)c(Cl)c4)c3c2)o1 [lapatinib] + Cc1cc(SCc2sc(-c3ccc(C(F)(F)F)c(F)c3)nc2C)ccc1OCC(=O)O [GW0742] (first compound 0.8 µM, partner dose 2 µM) | 108%
15 | NC1(c2ccc(-c3nc4ccn5c(=O)[nH]nc5c4cc3-c3ccccc3)cc2)CCC1 + C/C(O)=C(\C#N)C(=O)Nc1cc(Br)ccc1Br [LFM-A13] (first compound 0.4 µM, partner dose 2 µM) | 82%
16 | CC(=O)c1c(C)c2cnc(Nc3ccc(N4CCNCC4)cn3)nc2n(C2CCCC2)c1=O [palbociclib] + O=C(Oc1ccc([N+](=O)[O-])cc1)N1CCC(C(O)(c2ccc3c(c2)OCO3)c2ccc3c(c2)OCO3)CC1 [JZL184] (first compound 0.04 µM, partner dose 1 µM) | 89.6%
